In paper PMC4336329 (PLoS ONE, 2015):
Screen size: about 310,000 compounds; about 2,200 (0.71%) showed an effect of 50% or more. Effects have a minus sign here. The list shows a part of the results.

Target: human ether-à-go-go-related gene (hERG) potassium channel (human, UniProt Q12809)
Experiment: primary screen, population patch clamp on CHO cells stably expressing hERG

Chain of human ether-à-go-go-related gene (hERG) potassium channel (Q12809 whole entry, looked up): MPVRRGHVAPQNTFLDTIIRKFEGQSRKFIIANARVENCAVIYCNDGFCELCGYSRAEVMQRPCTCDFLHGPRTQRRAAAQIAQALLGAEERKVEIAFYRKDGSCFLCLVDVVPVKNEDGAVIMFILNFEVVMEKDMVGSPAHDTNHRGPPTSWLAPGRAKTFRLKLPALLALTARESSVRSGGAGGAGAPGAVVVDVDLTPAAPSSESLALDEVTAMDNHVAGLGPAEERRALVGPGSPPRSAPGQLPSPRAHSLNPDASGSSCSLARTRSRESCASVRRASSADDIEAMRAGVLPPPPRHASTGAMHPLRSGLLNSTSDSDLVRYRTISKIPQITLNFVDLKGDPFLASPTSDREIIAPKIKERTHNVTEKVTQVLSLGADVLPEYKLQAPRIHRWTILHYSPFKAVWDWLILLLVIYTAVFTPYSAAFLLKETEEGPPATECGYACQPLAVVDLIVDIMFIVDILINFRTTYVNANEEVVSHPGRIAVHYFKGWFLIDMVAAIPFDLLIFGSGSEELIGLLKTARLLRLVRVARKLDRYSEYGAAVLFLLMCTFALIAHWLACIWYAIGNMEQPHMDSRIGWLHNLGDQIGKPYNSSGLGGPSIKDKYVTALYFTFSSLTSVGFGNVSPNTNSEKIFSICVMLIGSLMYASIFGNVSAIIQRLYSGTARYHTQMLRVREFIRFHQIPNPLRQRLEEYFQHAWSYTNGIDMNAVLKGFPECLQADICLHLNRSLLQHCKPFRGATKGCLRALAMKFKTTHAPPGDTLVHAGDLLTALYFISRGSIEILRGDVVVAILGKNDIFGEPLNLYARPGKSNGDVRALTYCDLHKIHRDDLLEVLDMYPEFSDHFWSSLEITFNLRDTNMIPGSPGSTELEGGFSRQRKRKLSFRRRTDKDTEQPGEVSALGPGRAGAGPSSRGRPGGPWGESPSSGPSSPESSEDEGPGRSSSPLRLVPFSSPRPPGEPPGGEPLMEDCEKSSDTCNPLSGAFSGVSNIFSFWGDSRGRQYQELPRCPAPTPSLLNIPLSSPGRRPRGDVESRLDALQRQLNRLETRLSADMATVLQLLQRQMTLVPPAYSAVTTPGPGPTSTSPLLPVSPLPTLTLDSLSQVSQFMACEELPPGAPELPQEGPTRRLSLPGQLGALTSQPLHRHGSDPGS

Going from `CC(C)(C)CC(=O)Nc1ccccc1N1CCN(c2ccccc2)CC1` to `OC(CN1CCN(c2ccccc2Cl)CC1)c1ccccc1` (centres unmarked), the “hERG current change (%, negative = inhibition) at 1uM” value rises from -1.09% to 3.03%.

Compared with `COCCNC(=O)c1ccccc1-c1nc(-c2ccccc2OC)no1`, `O=C(CCCc1nc(-c2ccccc2Cl)no1)NCc1cccnc1` is higher in “hERG current change (%, negative = inhibition) at 1uM” value: 2.3% for the first, 10.2% for the second.

Going from `Cc1cccc(C(=O)N/N=C/c2ccc(OC3CSC3)cc2)c1` to `COC(=O)C1=C(COc2ccc(F)cc2)NC(=O)NC1c1ccc(C)cc1C` (centres unmarked), the “hERG current change (%, negative = inhibition) at 1uM” value rises from -59.8% to 8.46%.

Going from `CCN(C(=O)CSc1nc2nc(C)cc(C)n2n1)c1cccc(C)c1` to `CCN(CCCNC(=O)c1[nH]c(C)c(C(C)=O)c1C)c1cccc(C)c1`, the “hERG current change (%, negative = inhibition) at 1uM” value falls from 12.1% to 10.4%.

Compared with `CCn1c(CNc2cccc(C(F)(F)F)c2)n[nH]c1=S`, `Cc1cc(C(F)(F)F)nc(NCc2cccnc2)n1` is higher in “hERG current change (%, negative = inhibition) at 1uM” value: 15.8% for the first, 17% for the second.

First: Cc1nnc(SC(C)C(=O)Nc2ncc(Cl)cc2Cl)n1Cc1ccccc1 (centres unmarked)
Second: Cc1ccc(Cn2nc(C)cc2C(=O)Nc2ccccc2Cl)cc1
The “hERG current change (%, negative = inhibition) at 1uM” value of the first is lower: -19.8% for the first, 16.1% for the second.

Compared with `CC(=O)NCCC1CCN(c2nc3nonc3nc2N(C)Cc2ccccc2)CC1`, `CC(C)(C)c1nc(N2CCN(C(=O)c3ccco3)CC2)c2nnn(Cc3ccccc3Cl)c2n1` is higher in “hERG current change (%, negative = inhibition) at 1uM” value: -7.18% for the first, 3.23% for the second.

Going from `COC(=O)C1=CN(Cc2ccccc2)C=C(C(=O)OC)C1c1cc(F)ccc1F` to `Cc1cccc(NC(=O)c2ccc(OCC(=O)NCc3ccccc3)cc2)c1C`, the “hERG current change (%, negative = inhibition) at 1uM” value falls from 7.11% to 4.04%.

Going from `Cc1cccc(N(C(=O)c2sc(C)nc2C)C(C(=O)NCc2ccco2)c2ccccc2)c1` (centres unmarked) to `COc1cccc(C(C(=O)NCC2CCCO2)N(C(=O)Cn2nnc3ccccc32)c2ccc(NC(C)=O)cc2)c1` (centres unmarked), the “hERG current change (%, negative = inhibition) at 1uM” value rises from 5.72% to 19.6%.

Going from `Cc1cc(C)c2cc(C(=O)N3CCC(N4CCCCC4)CC3)[nH]c2c1` to `O=C(c1cc2cc3ccc(Cl)cc3nc2o1)N1CCCCCC1`, the “hERG current change (%, negative = inhibition) at 1uM” value rises from -58.8% to 15%.

Going from `Nc1nnc(SCC(=O)c2ccc3ccccc3c2)s1` to `COc1ccc2c(-c3ccccc3)cc(SCC(N)=O)nc2c1`, the “hERG current change (%, negative = inhibition) at 1uM” value rises from 5.27% to 5.41%.

Compared with `Cc1nc2cc(F)ccc2n1C1CCN(S(=O)(=O)c2ccccc2)CC1`, `CC1CCN(CCc2nc3cc(NS(=O)(=O)c4ccc(F)cc4)ccc3n2C)CC1` is lower in “hERG current change (%, negative = inhibition) at 1uM” value: -0.561% for the first, -54.8% for the second.

Going from `O=C1CSC(c2cn(-c3ccccc3)nc2-c2cccs2)N1CC1CCCO1` (centres unmarked) to `CC(=O)c1ccccc1NC(=O)c1ccc(N2CCCC2=O)cc1`, the “hERG current change (%, negative = inhibition) at 1uM” value rises from 6.3% to 7.48%.

Going from `COc1cccc(CN2CCC(CO)(CC3CCCCO3)CC2)c1` (centres unmarked) to `COc1ccc(CNC(=O)C2CC(=O)N(c3ccc(OCC(=O)N4CCCCC4)cc3)C2)cc1` (centres unmarked), the “hERG current change (%, negative = inhibition) at 1uM” value falls from 6.77% to 3.79%.

First: CCCCc1c(O)nc(SC2CC(=O)N(c3ccc(C(=O)OCC)cc3)C2=O)[nH]c1=O (centres unmarked)
Second: CC(=O)c1ccc(-n2c(C)c(C(C)=O)c3cc(O)ccc32)cc1
The “hERG current change (%, negative = inhibition) at 1uM” value of the first is higher: 15.9% for the first, 12.7% for the second.

Compared with `Cn1nccc1C(=O)N1CCc2ccccc21`, `CC(C)Oc1cccc(C(=O)C2CCCN(C(=O)c3ccnn3C)C2)c1` (centres unmarked) is lower in “hERG current change (%, negative = inhibition) at 1uM” value: 11% for the first, 5.9% for the second.

Going from `OCC[C@@H]1C[C@H](O)[C@@H](O)[C@@]2(Cc3ccccc3CO2)O1` to `COC(=O)N1CC(c2ccccc2)CC1=O` (centres unmarked), the “hERG current change (%, negative = inhibition) at 1uM” value falls from 16% to 8.42%.

First: CCc1cc(=O)[nH]c(SCCCF)n1
Second: Cc1cc2c(c(SCC(N)=O)n1)C(=O)OC2
The “hERG current change (%, negative = inhibition) at 1uM” value of the first is lower: 1.4% for the first, 6.51% for the second.

Compared with `C/C=C/C=C/C(=O)OCC(=O)Nc1ccc(Cl)cc1`, `CC(=O)Nc1cc(C(=O)OCc2cccc([N+](=O)[O-])c2)ccc1C` is lower in “hERG current change (%, negative = inhibition) at 1uM” value: 20% for the first, 14.2% for the second.

First: CC1CCCC(C)N1CCCNC(=O)Cn1ncc2c([nH]c3ccccc32)c1=O (centres unmarked)
Second: CCCCCNC(=O)CC1Nc2c3ccccc3nc(=S)n2C1=O (centres unmarked)
The “hERG current change (%, negative = inhibition) at 1uM” value of the first is higher: 11% for the first, 5.28% for the second.

First: O=C1CSC(c2ccco2)N1 (centres unmarked)
Second: Cc1sc2c(c1C)CN(Cc1ccncc1)CN2C(=O)c1ccco1
The “hERG current change (%, negative = inhibition) at 1uM” value of the first is higher: 11.7% for the first, -8.17% for the second.

Going from `O=C(O)c1cc(NN=Nc2cccc([N+](=O)[O-])c2)cc([N+](=O)[O-])c1` to `O=C(Nc1nn[nH]n1)c1cccc([N+](=O)[O-])c1`, the “hERG current change (%, negative = inhibition) at 1uM” value falls from 11.4% to -1.74%.

Going from `Cc1ccc(S(=O)(=O)c2nc(-c3ccco3)oc2SC(C)C)cc1` to `Cc1ccc(S(=O)(=O)Cn2nnnc2C(CC(C)C)N2CCN(c3ccc(F)cc3)CC2)cc1` (centres unmarked), the “hERG current change (%, negative = inhibition) at 1uM” value falls from 17.3% to 4.96%.

Going from `CCOCCCNS(=O)(=O)c1ccc(-n2cnnn2)c(OC)c1` to `CCn1nnc(-c2ccccc2NC(=O)c2cc(OC)c(OC)c(OC)c2)n1`, the “hERG current change (%, negative = inhibition) at 1uM” value falls from 10.1% to 6.29%.

Going from `O=C(CN1CCN(S(=O)(=O)c2ccccc2F)CC1)Nc1ccccc1C(=O)c1ccccc1` to `O=C(O)C(=O)O.Oc1ccccc1CN1CCN(C(O)(c2ccccc2)c2ccccc2)CC1`, the “hERG current change (%, negative = inhibition) at 1uM” value rises from -1.79% to -1.63%.

Going from `Cn1cncc1C#Cc1c(C=O)n(C)c2ccccc12` to `Cn1c(=O)c2c(nc(Oc3ccc4ccccc4c3)n2C)n(C)c1=O`, the “hERG current change (%, negative = inhibition) at 1uM” value falls from 26.8% to 13.1%.

First: CC(C)CNC(=S)N1CCN(c2nc(-c3ccc(Cl)cc3)cs2)CC1
Second: Cc1ccc(-n2nc(C(=O)N3CCOCC3)cc2-c2ccc(Cl)cc2)cc1
The “hERG current change (%, negative = inhibition) at 1uM” value of the first is higher: 18.9% for the first, -87.4% for the second.

First: CN(C)c1nc(N)nc(CSc2ncc(Cl)cc2Cl)n1
Second: COc1cc(NC(=O)CSCc2ccc(Cl)cc2Cl)c(C(=O)O)cc1OC
The “hERG current change (%, negative = inhibition) at 1uM” value of the first is lower: 5.88% for the first, 11.8% for the second.

First: COc1cc(C2C(C(C)=O)=C(O)C(=O)N2c2ccc(Br)cn2)ccc1O (centres unmarked)
Second: C/C=C(/C)C(=O)OC1Cc2c(ccc3ccc(=O)oc23)OC1(C)C (centres unmarked)
The “hERG current change (%, negative = inhibition) at 1uM” value of the first is lower: -7.16% for the first, 14% for the second.

Compared with `CCN(CC(=O)NC(=O)NCc1ccccc1)Cc1ccccc1`, `O=C(COC(=O)CC1Sc2ccccc2NC1=O)NCc1ccccc1` (centres unmarked) is lower in “hERG current change (%, negative = inhibition) at 1uM” value: 2.5% for the first, -14.6% for the second.

First: O=C(Nc1ccon1)c1ccc(Cl)s1
Second: O=C(O)c1ccccc1C(=O)Nc1ccccn1
The “hERG current change (%, negative = inhibition) at 1uM” value of the first is lower: 6.28% for the first, 9.16% for the second.

Going from `Fc1ccc(NCc2cccnc2)cc1F` to `C[C@@H](C(=O)Nc1cccnc1)n1c(=O)[nH]c2ccccc2c1=O`, the “hERG current change (%, negative = inhibition) at 1uM” value rises from 9.06% to 15.4%.

Going from `Oc1ccc(N=Nc2n[nH]c(-c3ccccc3)n2)cc1` to `Cc1ccc(-c2cc(C(=O)Nc3nn[nH]n3)c3ccccc3n2)c(C)c1`, the “hERG current change (%, negative = inhibition) at 1uM” value rises from 7.56% to 8.15%.

First: COC(=O)c1cc(NC(=O)c2ccccc2)c(=O)oc1C
Second: CCOC(=O)c1c(CSc2ccccc2)oc2cc(Br)c(O)c(CN(C)C)c12.Cl
The “hERG current change (%, negative = inhibition) at 1uM” value of the first is lower: 10.1% for the first, 13.1% for the second.

Going from `C[C@]12CC[C@H](O)C[C@H]1CC[C@@H]1[C@@H]2C[C@@H](O)[C@]2(C)[C@@H](C3=CC(=O)OC3)CC[C@]12O` to `CC(Sc1nnc(C2CC2)n1C1CC1)C(=O)Nc1cccc(S(=O)(=O)N2CCOCC2)c1` (centres unmarked), the “hERG current change (%, negative = inhibition) at 1uM” value falls from 20.3% to 5.02%.

First: Nc1c(C(=O)NCCN2CCOCC2)c2nc3ccccc3nc2n1-c1ccc2c(c1)OCO2
Second: Cc1ccc(-c2c(C)nn3c(N4CCOCC4)cc(C)nc23)cc1
The “hERG current change (%, negative = inhibition) at 1uM” value of the first is lower: -2.08% for the first, 11.3% for the second.

First: O=C(NCc1ccccc1C(F)(F)F)C1CC(c2ccccc2C(F)(F)F)=NO1 (centres unmarked)
Second: O=C(CSc1nc(COc2ccccc2)nc2ccccc12)NC1CCCC1
The “hERG current change (%, negative = inhibition) at 1uM” value of the first is lower: 3.14% for the first, 4.97% for the second.

Going from `NCCCC[C@@H]1NC(=O)c2cc([N+](=O)[O-])cc(I)c2SC[C@@H](C(=O)NCC(N)=O)NC(=O)CNC1=O` to `CCOC(=O)CSc1nc2ccccc2c(=O)n1CC1CCC(C(=O)NCc2ccco2)CC1` (centres unmarked), the “hERG current change (%, negative = inhibition) at 1uM” value falls from 13.4% to -8.62%.

Going from `COc1ccc(NC(=O)CN(Cc2ccco2)Cc2ccco2)cc1S(=O)(=O)N1CCCCC1` to `O=S(=O)(NC1=NCCCCC1)c1ccc2ccccc2c1`, the “hERG current change (%, negative = inhibition) at 1uM” value rises from -5.36% to 8.21%.

Compared with `OCCC1CN(Cc2nc3ccccc3s2)CCN1CCc1ccccc1` (centres unmarked), `Cc1ccc(-c2cc(C(=O)N3CC4(C)CC3CC(C)(C)C4)no2)cc1` (centres unmarked) is higher in “hERG current change (%, negative = inhibition) at 1uM” value: -58.3% for the first, 11.1% for the second.

Compared with `COC(=O)c1ccc(COc2ccc(-c3nn[nH]n3)cc2)cc1`, `CCOC(=O)C1CCN(C(=O)COC(=O)c2oc3ccc(OC)cc3c2C)CC1` is lower in “hERG current change (%, negative = inhibition) at 1uM” value: 5.98% for the first, -7.34% for the second.

First: CCCc1nc(SCC(=O)N2CCOCC2)c2c(C)c(C)sc2n1
Second: CN(C)C(=O)CSc1ccc(S(=O)(=O)N2CCOCC2)cn1
The “hERG current change (%, negative = inhibition) at 1uM” value of the first is lower: -2.97% for the first, 14.3% for the second.

Going from `CCc1c(C)sc(NC(=O)c2cccs2)c1C#N` to `Cc1ccc2c(=O)oc(N(C)C)nc2c1`, the “hERG current change (%, negative = inhibition) at 1uM” value falls from 10.7% to -3.68%.

Compared with `COc1ccc(OC)c(S(=O)(=O)Nc2cc3c4c(c2)C(C)C(=O)N4CCC3)c1` (centres unmarked), `O=S(=O)(NC1CC1)c1cccc(S(=O)(=O)N2CCCC2)c1` is lower in “hERG current change (%, negative = inhibition) at 1uM” value: 9.46% for the first, 3.74% for the second.

For `CCC(=O)Nc1cc(C(F)(F)F)ccc1N1CCOCC1`, the “hERG current change (%, negative = inhibition) at 1uM” value was 10.7%.
